About 4,500 (2.2%) of roughly 200,000 compounds were called active. The inconclusive results got no clear call from the source; some entries with a clear call stand among them for comparison. Calls follow the shape of the dose curve; as a rule, active = well fitted inhibition curve with a large enough effect; inconclusive = small, poorly fitted or top-dose-only effect, or effect the other way; inactive = flat fitted curve, though single readings scatter. Potencies beside an inconclusive call are fits to weak or partial responses and may not hold up.
target: Cruzipain (Trypanosoma cruzi) (UniProt P25779); test: qHTS Assay for Promiscuous and Specific Inhibitors of Cruzain (without detergent); details: purified cruzain, Z-FR-AMC fluorescence, no detergent; also: nearly all actives have a fitted effect of over 40% in size;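 as to max response, negative = inhibition: plate controls were enzyme without inhibitor for no effect and buffer without enzyme for full effect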
Procedure, shortened: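 Purified cruzain at 1.5 nM, pre-incubated 15 min with compound at room temperature in 100 mM sodium acetate pH 5.5, 5 mM DTT, 0.00005% Triton X-100. Reaction started with 2 uM Z-FR-AMC; AMC fluorescence increase over 60 s gives rate.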
Potency is read from the fitted curve at half-maximal effect; tags tell the direction and shape of the fitted curve.

UniProt P25779, sequence (P25779 whole entry, looked up): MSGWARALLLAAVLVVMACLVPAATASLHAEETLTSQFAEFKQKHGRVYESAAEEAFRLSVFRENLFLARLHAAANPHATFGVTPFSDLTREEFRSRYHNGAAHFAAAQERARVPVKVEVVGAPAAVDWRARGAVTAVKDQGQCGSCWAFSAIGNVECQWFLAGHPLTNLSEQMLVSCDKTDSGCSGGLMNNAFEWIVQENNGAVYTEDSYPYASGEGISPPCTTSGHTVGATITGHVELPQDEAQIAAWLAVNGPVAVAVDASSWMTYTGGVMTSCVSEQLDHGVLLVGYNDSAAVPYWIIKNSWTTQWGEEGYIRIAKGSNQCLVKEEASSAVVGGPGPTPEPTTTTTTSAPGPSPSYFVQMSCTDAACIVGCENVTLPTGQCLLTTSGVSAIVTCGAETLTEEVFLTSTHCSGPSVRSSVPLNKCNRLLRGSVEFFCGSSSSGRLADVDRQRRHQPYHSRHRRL

Row | SMILES | Potency | max response, negative = inhibition
1 | CCn1c(NC(=O)c2ccc(COc3ccc(C)cc3[N+](=O)[O-])o2)nc2ccccc21 | inconclusive: 39.8 µM [inhibitor, single point] | 
2 | COCC1C2CC[C@H]3C(OCc4ccc(OC)cc4)OC[C@]4(C)[C@H]3C2=C(CN4C(=O)OC(C)(C)C)[C@H](C)C1COC (stereo partly drawn) | inconclusive: 5.01 µM [activator, partial curve] | 
3 | COc1cc(Cl)c(C)cc1NC(=O)c1cnc(N2CCCCC2)c2ccccc12 | inconclusive: 0.0251 µM [activator, full curve, poor fit] | 
4 | O=C(NN1CCOCC1)c1cc(-c2cccc(Cl)c2)nc2ccccc12 | inconclusive: 39.8 µM [activator, single point] | 
5 | Cc1ccc(-c2cc(C(=O)N/N=C/c3c(C)nn(C)c3C)c3ccccc3n2)cc1C | inconclusive: 25.1 µM [activator, partial curve] | 
6 | O=S(=O)(NC1CC1)c1ccc(S(=O)(=O)N2CCCC3(CCCCC3)C2)cc1 | inconclusive: 39.8 µM [inhibitor, single point] | 
7 | COc1ccccc1N1CCN(C(=O)C2CCCN(S(=O)(=O)c3ccc4c(c3)CCCN4C(C)=O)C2)CC1 (stereo not drawn) | inconclusive: 7.94 µM [activator, full curve] | 
8 | COc1ccc(NC(=O)/C(Cl)=C(/Cl)S(=O)(=O)Cc2ccc(C)cc2)cn1 |  | inactive: 4.99%
9 | CCCCCCC(=O)Nc1nc(C)c(-c2csc(Nc3cc(Cl)ccc3C)n2)s1 | active: 10 µM | 
10 | Cc1ccccc1Nc1c(-c2ccc(N3CCOCC3)cc2)nc2ccc(Br)cn12 |  | inactive: -14.1%
11 | COc1cccc(Cn2cc(C(=O)c3ccc(Cl)cc3)c(=O)c3ccccc32)c1 |  | inactive: 14.8%
12 | Cc1nn(-c2nc3ccccc3s2)c(N)c1-c1ccc(Cl)cc1 | inconclusive: 25.1 µM [inhibitor, single point] | 
13 | Cc1ccc(NC(=O)c2ccc(NC(=O)CCS(=O)(=O)c3cccs3)cc2)cc1F |  | inactive: -15.2%
14 | Cc1ccc2nc(C)cc(N3CCOCC3)c2c1 |  | inactive: -12.1%
15 | COc1nc(-c2ccccc2)cc(-c2ccc(OC)c(OC)c2)n1 | inconclusive: 31.6 µM [activator, single point] | 
16 | COc1ccc2[nH]cc(CCN=C(NC(=O)c3ccccc3OC)Nc3nc(C)cc(C)n3)c2c1 | inconclusive: 39.8 µM [activator, single point] | 
17 | COCCNC(=O)c1ccccc1NC(=O)c1nsc2ccccc12 | inconclusive: 1.26 µM [activator, partial curve, poor fit] | 
18 | O=C(NCCSc1c[nH]c2ccccc12)c1ccccc1Cl |  | inactive: -0.446%
